From patent publication US20120058977A1, “PHARMACEUTICAL COMPOSITIONS AND METHODS FOR TREATING TUBERCULOSIS” (Rijksuniversiteit Groningen, priority 2009, published 2012)

Key:
[1] = system: wild type M. smegmatis mc^2155; assay: Growth inhibition of wild type M. smegmatis mc^2155 (glucose mineral liquid cultures or agar plates); details: for growth inhibition of wild type mc^2155 in glucose mineral liquid cultures: 0.01% test compound, compared with R. erythropolis SQ1
[2] = system: wild type Rhodococcus erythropolis SQ1; assay: Growth inhibition screening assay, wild type R. erythropolis SQ1 (glucose mineral agar or liquid medium); details: for inhibitory activity / growth inhibition in wild type SQ1 (summary statement): medium format and concentration not stated at the place; for growth inhibition of wild type SQ1 on mineral glucose agar plates: 0.01% (w/v or v/v) test compound
[3] = system: R. erythropolis RG8-37; assay: Growth inhibition screening assay, R. erythropolis RG8-37 (glucose mineral agar or liquid medium); type: cell-based, Rhodococcus erythropolis; details: for growth inhibition in mutant strain RG8-37 compared with SQ1: mineral glucose agar plates, 0.01% test compound
[4] = system: gene inactivated mutants of R. erythropolis RG8-37; assay: Growth of gene inactivated mutants of RG8-37 on MM glucose agar medium with HIL; details: MM glucose agar medium with HIL 100 mg/L
[5] = system: 3-ketosteroid 9α-hydroxylase (KSH) activity; details: AD 0.5 g/L; strain RG8-37 in mineral glucose medium

With “3aα-H-4α(3′-propionic acid)-5α-hydroxy-7aβ-methylhexahydro-1-indanone-δ-lactone [HIL, reference compound]” the “growth of wild type strain on glucose mineral agar plates” value ([1]; HIL 200 mg/l, 37° C., after 3 days) was “confluently grown”, the “time in which wild type SQ1 grew to stationary phase” value ([2]; liquid glucose mineral media containing HIL 100 mg/l) was no more than 72 h and the “inhibitory activity / growth inhibition in wild type SQ1 (summary statement)” value (shortened to “inhibitory activity / growth inhibition”) [2] was “does not occur”. The “growth of RG8-37 on glucose agar plates” value ([3]; HIL 0.01% w/v, after 3 days of incubation) was “no growth”, the “growth of RG8-37 in liquid glucose mineral media” value ([3]; HIL 100 mg/l, over a period of 96 hours) was “unable to grow” and the “growth of strains RG45 (fadE31) and RG46 (echA13)” value [4] was “still inhibited”.
In the case of C[C@]12CCCC[C@@H]1CC[C@@H]2O (racemic) [racemic compound II, rac-(1β,3aα,7aβ)-7a-methyl-1H-octahydroinden-1-ol], the “growth inhibition of wild type mc^2155 in glucose mineral liquid cultures” value [1] is reported as “also inhibited by these compounds, but to a much lesser extent”, the “growth inhibition of wild type SQ1 on mineral glucose agar plates” value [2] is reported as “Growth inhibition” and the “growth inhibition of wild type SQ1 on mineral glucose agar plates” value ([2]; listed as Racemic compound II) is reported as “strongest inhibition of growth”. The “growth inhibition of wild type SQ1 in glucose mineral liquid cultures” value ([2]; 0.01% test compound) was “strong inhibitory effect”, the “growth inhibition in mutant strain RG8-37 compared with SQ1” value (shortened to “growth inhibition … compared with SQ1”) [3] was “even more pronounced” and the “inhibition of 3-ketosteroid 9α-hydroxylase activity” value [5] was “not inhibited”.
In the case of C[C@@]12CCCC[C@H]1CC[C@H]2O [(−)-compound II, (−)-(1R,3aS,7aR) 7a-methyl-1H-octahydroinden-1-ol], the “growth inhibition of wild type SQ1 in glucose mineral liquid cultures” value ([2]; 0.01% test compound) is reported as “did not inhibit the growth”, the “growth yield of wild type SQ1 in glucose mineral liquid cultures” value ([2]; 0.01% test compound) is reported as “lower growth yield” and the “inhibitory activity / growth inhibition” value ([2]; listed as (−)-(1R,3aS,7aR) 7a-methyl-1H-octahydroinden-1-ol) is reported as “less active enantiomer”. The “inhibitory activity / growth inhibition” value ([2]; listed as (−)-II) was “show inhibitory activity”.
In the case of C[C@]12CCCC[C@@H]1CCC2=O (racemic) [compound I], the “inhibition of 3-ketosteroid 9α-hydroxylase activity” value [5] is reported as “not inhibited”.
For C[C@]12CCCC[C@@H]1CCC2=O [compound I], the “growth inhibition of wild type SQ1 on mineral glucose agar plates” value [2] was “Growth inhibition”, the “inhibitory activity / growth inhibition” value [2] was “show inhibitory activity” and the “growth inhibition … compared with SQ1” value [3] was “even more pronounced”.
In the case of CC(=O)Oc1ccc(C)c(CC[C@@H]2C(=O)CC[C@]3(C)C(=O)CC[C@@H]23)c1 [compound III], the “growth inhibition of wild type mc^2155 in glucose mineral liquid cultures” value [1] is reported as “also inhibited by these compounds, but to a much lesser extent”, the “growth inhibition of wild type SQ1 on mineral glucose agar plates” value [2] is reported as “Growth inhibition” and the “growth inhibition of wild type SQ1 in glucose mineral liquid cultures” value ([2]; 0.01% test compound) is reported as “strong inhibitory effect”. The “inhibitory activity / growth inhibition” value [2] was “show inhibitory activity” and the “growth inhibition … compared with SQ1” value [3] was “even more pronounced”.
In the case of C[C@]12CCCC[C@@H]1CC[C@@H]2O [(+)-compound II, (+)-(1S,3aR,7aS)-7a-methyl-1H-octahydroinden-1-ol], the “growth inhibition of wild type SQ1 in glucose mineral liquid cultures” value ([2]; 0.01% test compound) is reported as “inhibited growth comparable to racemic compound II”, the “inhibitory activity / growth inhibition” value [2] is reported as “most effective growth inhibition” and the “inhibitory activity / growth inhibition” value ([2]; listed as (+)-(1S,3aR,7aS)-7a-methyl-1H-octahydroinden-1-ol) is reported as “active enantiomer”. The “inhibitory activity / growth inhibition” value ([2]; listed as (+)-(1S,3aR,7aS)-enantiomer) was “active constituent of racemic compound II” and the “inhibitory activity / growth inhibition” value ([2]; listed as (+)-II) was “show inhibitory activity”.
